In the supplement of paper PMC11417369:
± gives the standard deviation of the averaged measurements. Some of the results follow.

System: PfAP2-LT AP2 domain (GST-tagged)
Test: gcPBM binding intensity (ln(normalized median fluorescence intensity)); higher = stronger DNA binding
Method in brief: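 For binding intensity, the highest Masliner-normalised natural-log median intensity across replicate spots of either probe orientation was taken. Protein bound to the array was stained with Alexa488 anti-GST antibody and scanned at 488 nm. The protein, GST-tagged P. falciparum DNA-binding domains from E. coli at about 25 μg on average, had been applied for 1 h to an Agilent 4 × 180k array of primer-extended double-stranded 36-bp intergenic genomic probes and negative controls.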

Sequence | gcPBM binding intensity (ln)
AATAATAAAAAATACGCACACATGTAAACGTATGTT [CACACA_site3336] | 9.08 ± 0.38
ACACATAAATGTATATATATATAAATATATGTATGT [CACACA_negctrl_site1532] | 9.12 ± 0.33
ATAAATGTTATGCATACACACTTTATACCTATTTAA [CACACA_site5967] | 8.9 ± 0.4
AATCCTTACAGACACACACACACGAATAAATAAAAA [CACACA_site480] | 9.68 ± 0.3
TATGTATTATCAAAAAGTACTAAAAAAAAATAATAA [XGTACX_site4703] | 8.38 ± 0.5
TATATATGTATATGTGTGCACCTTATTTCTTTTATT [GTGCAC_site9513] | 9.33 ± 0.4
TTATAATTTTTGAGCACACACAAGCATATATATATA [CACACA_site1798] | 9.275 ± 0.05
AATAAATACATACATACATGCATACATATATCTCAA [TGCATGCA_site1040] | 8.97 ± 0.4
AAAAATAAAATATATATATATATATATATATATATA [CACACA_negctrl_site58] | 9.53 ± 0.29
TATTTTTATATATATACACACTTACAGATATATATT [CACACA_site5905] | 8.97 ± 0.45
TGAAAAAAAAAATGCACACGCATACATATAATATGT [CACACA_site641] | 9.13 ± 0.3
AAACATAAATATGAGAGTACAAAAAATATTATGAAT [XGTACX_site151] | 8.96 ± 0.53
ATCTCTTAAATTTTACGTACTTATTTTATCTTCTTA [XGTACX_site8877] | 9.1 ± 0.65
TTATAATATATTACAAGTTCATTCATATAATATGTT [CACACA_negctrl_site1695] | 8.64 ± 0.44
TAAATAAATTTGCACTGTACGCAAAAAAAAAAAAGA [XGTACX_site8781] | 8.78 ± 0.63
GTATATATATATTTATGTACTTACCTACATAATTAT [XGTACX_site4435] | 9.26 ± 0.53
AAAGGGGAGATATGAACACACAAAAAAAAAATATAT [CACACA_site7378] | 9.06 ± 0.65
TATATATATTTTAAATGTACTTATAAATTACCACTT [XGTACX_site5673] | 8.56 ± 0.51
AATATTTACAGACATGCGCACACATAAATAAATAAT [CACACA_site8760] | 9.38 ± 0.38
AAATAAAATTTTTGTTGTACTTATTTTTAGTATACT [XGTACX_site4254] | 8.72 ± 0.42
AGAAAGGATATAAGCGTAGCTATATCATAAAAAATG [GTGCAC_negctrl_site332] | 8.72 ± 0.53
AATAAATTAGAAGGATGTACTTTGTTTAATATAGAG [XGTACX_site1943] | 8.54 ± 0.46

Sequence | gcPBM binding intensity (ln)
AGGTTATATATGAACAAAAATAAAATATTCATAGGC [TGCATGCA_negctrl_site46] | 8.91 ± 0.5
TAATATAATCTGAGTGCACACAAATAAATAAACATA [CACACA_site8032] | 9.16 ± 0.44
TATGCAAATTAATAATGTACGAAATATTTATAATTT [XGTACX_site2324] | 8.59 ± 0.4
ATGTTATAAAATATATGTACATATTTATATAAAATA [XGTACX_site5766] | 8.62 ± 0.5
ATATTATATATATGATGTACTAAATATATTATTATG [XGTACX_site1703] | 8.71 ± 0.41
ATAAATAATTAGAATTGTACAAAAATTATATATATG [XGTACX_site5107] | 8.73 ± 0.43
TATTTTATATTATCATGTACAAAAAAAAAGAAAAGA [XGTACX_site5379] | 8.47 ± 0.43
TTTATATTCTTTTTTTAACACACAAAAAAAATAAAA [CACACA_site8574] | 8.22 ± 0.43
TCTATTAATGAATATACACACATTATATATATATAT [CACACA_site5410] | 9.02 ± 0.38
TATATAAAAAGTAATTGTACATATATATATATATAT [XGTACX_site7953] | 9.32 ± 0.042
ATATATTTATATAAATGTACACGTGAATATATAATA [XGTACX_site1166] | 8.97 ± 0.32
ATATGTAAAATGAAGATACATACATACATACATACA [CACACA_negctrl_site715] | 9.4 ± 0.24
ATAATATGCAATATTACACACAATTCATCATTTTTT [CACACA_site7477] | 8.96 ± 0.42
GTATATTTAAATAAAAGTACGTAAAGATATATTTAA [XGTACX_site8087] | 8.86 ± 0.57
ACATATGAATATTTTTGTACGTATATTGTTATTCTT [XGTACX_site4720] | 9.09 ± 0.44
AAAAAAAAAAAACACACACACACATACAAAATATAT [CACACA_site1448] | 10.04 ± 0.071
GTAATTTAAATAACAAGTACTAATGTGGATAAGCAG [XGTACX_site1163] | 8.87 ± 0.42
AATTATACGAAATAAAACTTAATAGACAAAAAATTA [CACACA_negctrl_site1384] | 8.65 ± 0.43
ATTTTGTATTGACGCTGTACAAACATTAATATAATA [XGTACX_site2496] | 8.72 ± 0.29
TTTTGCGTAGCAACGAGGTTTTTAAAAATGTAACCA [GTGCAC_negctrl_site691] | 8.38 ± 0.49
AACAAAATAAAACACACACACAAATGTACATATATA [CACACA_site2424] | 9.88 ± 0.26
TAGAAGCATCATTTTACACACATGCAAATGTAAACT [CACACA_site6973] | 8.97 ± 0.34
